Results as given in ChEMBL document CHEMBL4888484, “Replenishing the malaria drug discovery pipeline: Screening and hit evaluation of the MMV Hit Generation Library 1 (HGL1) against asexual blood stage Plasmodium falciparum ,using a nano luciferase reporter read-out” (2022).
Hit rate of the full screen: of about 150,000 compounds, about 540 (0.36%) showed an effect of 50% or more. The list shows a part of the results.

Tested on: Plasmodium falciparum
Assay: Primary screen in NF54 nanoGlo assay, in single point, at 2uM, 72h; a lower Z score goes with more inhibition
Type: functional, Erythrocyte
Settings: timepoint 72 hour

Compound	% Inhibition [%]	Z score
Nc1cc(N2CCO[C@H](c3ccccc3)C2)c(Cl)cn1	-4	0.83
CC(C)(C)NC(=O)CNc1nnc(C2CC2)s1	30	-4.33
COc1ccc(CCNC(=O)CN(c2ccc(OCc3ccccc3)cc2)S(C)(=O)=O)cc1	-5	0.7
CCC(COC)NC(c1nc(C)no1)C(C)C (centres undefined)	-6	0.73
COC[C@H](C)NCc1cccc(C)c1C	-8	0.68
Cn1ccnc(N2CCN(C(=O)Cc3c[nH]c4ccccc34)CC2)c1=O	3	-0.49
C[C@]1(O)CCN(C(=O)c2cncc(Cl)c2)C[C@@H]1O	-26	2.76
CCCNC(=O)OC[C@H]1CCCCN1Cc1cncc(F)c1	4	-0.56
CCCc1noc(CN(CCC)CC(=O)OC)n1	-9	1.45
CNC(=O)[C@@]12CCOC[C@@H]1CN(C(=O)N[C@@H](C)c1cccc(O)c1)C2	-7	0.96
CC1CCN(CCCNCc2cc3ccccc3o2)CC1	-1	0.15
CC1(C)CCCN1C(=O)Nc1cccc(-c2nnc3n2CCC3)c1	-2	0.36
CCn1cc(CN(Cc2ccc(CC3CCN(C)CC3)cc2)C2CC2)c(C)n1	5	-0.89
CCOc1ccccc1C(=O)NC[C@@H]1CN(C)C(=O)[C@H](c2ccccc2)N1C	-9	1.26
Cn1ncc2ccc(-c3noc(C(=O)Nc4ccccc4)n3)cc21	-2	0.43
O=C(O)CCN(CCc1ccccc1)Cc1cc2ccccc2o1	-5	0.77
Cc1cnn(CCNCc2cccc3nccn23)c1	-18	1.6
Cc1ccc(S(=O)(=O)N2C[C@@H]3CC[C@H]2CN(C)C3)cc1F	-16	1.53
CN(C)S(=O)(=O)N1C[C@H]2CC[C@@H](C1)N(Cc1nccs1)C2	-1	0.13
Cc1cc(=O)[nH]c(NCCNC(=O)c2cc(C(C)C)oc2C)n1	-13	2.6
CC(C)NC(=O)[C@H]1O[C@H](CCN2CCN(c3ccccc3)CC2)CC[C@@H]1O	-5	0.63

Compound	% Inhibition [%]	Z score
CCn1nc(C)c(CN2CCC(CCOC)(c3noc(-c4cccnc4)n3)CC2)c1C	-9	1.15
CN1CCNC(=O)C[C@@H]2CN(Cc3cccc(Cl)c3F)C[C@@H]2n2cc(nn2)Cn2cccc(c2=O)C1=O	-12	2.31
CCNc1ccnc(NCCn2nc(C)c(C)c2C)n1	-6	0.79
O=S(=O)([N-]c1nc2ccccc2nc1-[n+]1ccccc1)c1cccs1	2	-0.27
CC(C(=O)N1CCCc2ccccc21)S(=O)(=O)CC1CCCO1 (centres undefined)	3	-0.33
CN1C(=O)[C@@H]2CC[C@H]1CN(S(=O)(=O)Cc1cc(F)ccc1Cl)C2	1	-0.15
O=C(c1ccco1)N(CC1CCN(C2Cc3ccccc3C2)CC1)C[C@H]1CCCO1	-7	1.09
CCOc1ccc(NS(=O)(=O)c2cc(-c3c(CC)nn4c3NC(=O)CCC4=O)ccc2OC)cc1	3	-0.35
O=C(CNc1ccn(CC(F)(F)F)n1)Nc1cccc(Cl)c1Cl	-2	0.25
Cc1ccc(Cn2cccc2C(=O)C(=O)Nc2ccccc2)cc1C	-16	1.52
CCN1CCCc2cc(C(=O)NCc3ccccc3OC)sc21	-8	1.49
O=C1COc2ccc(S(=O)(=O)N3CCC[C@H]3C(=O)Nc3cccc(Cl)c3)cc2N1	-7	1.2
O=C(Cc1cccs1)Nc1ccc2c(c1)OCCCO2	-3	0.56
Cc1cccc(-c2nn(-c3ccccc3)c3nc(OCC(=O)Nc4ccccc4)cc(C)c23)c1	-10	1.28
Cc1[nH]ncc1CNC(=O)c1cc2n(n1)C[C@@H](c1ccc(F)cc1)OC2	-10	1.12
NC(=O)c1ccccc1NC(=O)CN1CCC[C@H](C(=O)c2ccc(F)cc2)C1	1	-0.13
COc1ccc(OC)c(S(=O)(=O)Nc2ccc(-c3nc4ccc(C)cc4s3)cc2)c1	-12	1.48
CC[C@H]1COCCN1C(=O)c1c[nH]c2ncccc12	32	-3.58
Cc1ccc(CNC(=O)c2cnc3c(c2)ncn3C)c(C)c1	-19	1.66
C=C(C)c1nc(C#N)c(NC2CCCC2)o1	-3	0.38
C/C=C(\C)CN(C)CCn1cc(C(=O)NCc2ccncc2)nn1	-12	2
